For 72 sequences, binding signal (log2 normalized intensity) results are on record in article PMC10726135.

Some of the results follow. At the low end of the ranking, values are background and their order means little. The protein was read in a cell extract, so binding may be indirect.

The target of the experiment is T1, HNF4alpha2 (COS-7 nuclear extract) (UniProt P41235).
T1 sequence: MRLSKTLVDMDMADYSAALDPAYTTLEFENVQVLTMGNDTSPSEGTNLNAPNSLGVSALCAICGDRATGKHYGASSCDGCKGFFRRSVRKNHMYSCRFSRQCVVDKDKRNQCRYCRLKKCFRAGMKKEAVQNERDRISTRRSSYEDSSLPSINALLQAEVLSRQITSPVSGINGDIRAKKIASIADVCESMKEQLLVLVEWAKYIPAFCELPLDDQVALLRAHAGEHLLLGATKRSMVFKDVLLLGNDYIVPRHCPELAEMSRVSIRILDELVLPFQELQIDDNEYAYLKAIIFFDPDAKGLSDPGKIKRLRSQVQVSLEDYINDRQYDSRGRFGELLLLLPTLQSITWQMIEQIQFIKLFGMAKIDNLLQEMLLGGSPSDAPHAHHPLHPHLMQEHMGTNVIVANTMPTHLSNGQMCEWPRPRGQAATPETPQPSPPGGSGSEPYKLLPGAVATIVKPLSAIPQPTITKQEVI
Nature of the experiment: protein-binding microarray. Particulars: COS-7 nuclear extract on double-stranded Agilent 4x180k PBM; binding buffer, salt, pH and temperature not given; high values mean tight binding; double strand, one strand shown; sequences stand for … in …GCCTAGGGAGATTAGAGTATCGGTCGA
For CTCATGGGCCTAAACATTCCCCTTTGTCTA, the binding signal (log2 normalized intensity) came to 1.69.
AGGTCATGCATAGAAGTATGTCTGGGATTT: the binding signal (log2 normalized intensity) is 1.44.
Take CTGGTCCCCTGCACAGTCAAAAATTTGTGT: the binding signal (log2 normalized intensity) amounted to 0.967.
For TGTATGACCTTTGTTTTATTGTCATGCTGA, the binding signal (log2 normalized intensity) was 2.75.
Consider AGCACTTCATCCTTATGTAACTGTAACTAT, for which the binding signal (log2 normalized intensity) was 0.74.
In the case of TAGATATCGCTCCAAGAGCCAACAGGAATT, the binding signal (log2 normalized intensity) is -1.2.
Regarding GATCTTTGGGCCATATTGACTAAACATTCT, the binding signal (log2 normalized intensity) came to 0.122.
Consider GTTACATCATAGTGTTTGCCTTATTTGAAC, for which the binding signal (log2 normalized intensity) is 2.05.
Regarding AGAGTGAGCAGCACTTTTGGAGTTTGACCT, the binding signal (log2 normalized intensity) came to 7.73.
As for AGTGACATGCTTGCTTTTCAAACAGTGTGC, the binding signal (log2 normalized intensity) was 1.44.
As for GTGTATGGGTATAGGCGCGCGTGTGTGTGT, the binding signal (log2 normalized intensity) was found to be 2.81.
For GGTGGAGAAAGGCAGAAGGTTCCAGGGAAC, the binding signal (log2 normalized intensity) is -1.22.
Take TCCAGCATTCTTTTCCCCATACCAGGCAGT: the binding signal (log2 normalized intensity) was found to be 2.37.
In the case of TTACTGACTCCACAGTGGGGCAGATCACAA, the binding signal (log2 normalized intensity) is -1.13.
On to TTGGCTCTTATGTCCCTCCTGACCTTTGGA, for which the binding signal (log2 normalized intensity) was 8.6.
As to AAAAGGCAGTCCTTAGATCCACGGAGAATG, the binding signal (log2 normalized intensity) is -0.624.
Consider TGTCAGGGAAGGCTAGCATTCCTGCACACC, for which the binding signal (log2 normalized intensity) was -0.702.
As for GCAGATGATCAAGAGGCTCTTCAATGCATT, the binding signal (log2 normalized intensity) was -0.955.
GTGAGTCAAGCACTTCTCACATCACGTCTC: the binding signal (log2 normalized intensity) was -1.06.
In the case of CAAATGAAAAGAATATCTCAGCAGCCTGGC, the binding signal (log2 normalized intensity) was -0.732.
Take CTGGCATAGCATGCCACGATGATTAGCTGA: the binding signal (log2 normalized intensity) is -1.1.
Consider CACAGCTGGACTTTGGCTGCAAAATTTGAA, for which the binding signal (log2 normalized intensity) worked out at 3.04.
Turning to GAAATTCTCAAAAGTTTTTCCCTTCTGTTA, the binding signal (log2 normalized intensity) stood at 0.0227.
In the case of GGTCACCTGGAAGCAGAAGGAGGAGGAGGT, the binding signal (log2 normalized intensity) is -1.21.
On to AGAATTCCTTCTTGCTTAGGATAGGGTCAG, for which the binding signal (log2 normalized intensity) worked out at 2.14.
For the sequence GAGGACAGTTGTGTTTGTTGACCACTCTTT, the binding signal (log2 normalized intensity) worked out at 1.84.
With GCAGTGAGAACAGGTTCATTCTTTAAGTGT, the binding signal (log2 normalized intensity) amounted to 1.36.
GCCTCCCTGTGGGGGAGGTGCAGAGAGGGG: the binding signal (log2 normalized intensity) was -0.929.
The result for CTTCCCTGGTCCTCAGGCCTTTGGACCCAG reads 5.21; that for CTTCTCAACTAGGCCTGAAATTTGGCCTGC, 1.
On to TGAATTCCAAAGGTTATTTTCTTTAAGCCT, for which the binding signal (log2 normalized intensity) came out at 2.56.
TATTTAAGGGTTCAGGGCAGAAGAGGTTAT: the binding signal (log2 normalized intensity) turned out to be 1.27.
Regarding GTGTATGATGACGCCACGCCGCTCTTTCTC, the binding signal (log2 normalized intensity) is -0.853.
As for AAACAGTACTGACATCTATCAACATATCTT, the binding signal (log2 normalized intensity) was -0.574.
The result for CCCTTTGGCCTTTCTAATTATTTACAGGGA reads 0.82; that for CTGGAGAATCCTCTCTTGCTCAGGTGAGGC, -1.17.
As to GGCAGACTCAAGATAGAGGGCTGCCAAAGC, the binding signal (log2 normalized intensity) was -1.12.
As for AAGAGCATGGCGCCAGGGAGTGATTGCCCT, the binding signal (log2 normalized intensity) stood at 1.78.
For the sequence GCGCCGCGCCGGGGAAGCTGTTGGGCGCCG, the binding signal (log2 normalized intensity) turned out to be 1.76.
As for GAGGGGCCTGTCAGGCCCAGAAACACTGAA, the binding signal (log2 normalized intensity) was -1.09.
In the case of CTCTTTCAACTTTCAACATTTAACTTAACC, the binding signal (log2 normalized intensity) was found to be 1.24.
In the case of CGCAGCAAGTTACACAAGTAGAATGAAAGC, the binding signal (log2 normalized intensity) is -1.17.
Turning to TAGGAATGTCATGCAGCTAAAAGCAGCATC, the binding signal (log2 normalized intensity) is -1.3.
As for CTGCACTGCAATGACAATAAATTATACCAA, the binding signal (log2 normalized intensity) was -1.15.
TTGGAGACGCAGAGAAGCACTGCAGTTTAA: the binding signal (log2 normalized intensity) is -1.16.
Take CATTAGGAGGAAAAAGAATGCCTCTTTCAA: the binding signal (log2 normalized intensity) was -1.16.
Next, ATGGAGCTGGAGGGCAAAGGTCAGAGGCTG: 6.39.
Consider GGCCTGGCCACTCCGTTTGCTATGGCCTTT, for which the binding signal (log2 normalized intensity) turned out to be 1.86.
Next, AACAAACATGAGGGACTGGGAAGAGAAGGT: -1.22; TCCAGCCCTGTCTCTCAGGTGTAACAGTTG: 1.21.
Regarding ACTGCCCGCTGGCCTCCCCATCCTCATGAC, the binding signal (log2 normalized intensity) came out at 2.7.
Regarding TGAACTAACAATTCTTTCTGATAAGAGCAT, the binding signal (log2 normalized intensity) is -1.08.
For GTCAATGGTAGAAAAGGAAATATCTTCGTA, the binding signal (log2 normalized intensity) was -0.771.
For the sequence GGGGTCAGCAAAAATAGCCAAAATAAAGCA, the binding signal (log2 normalized intensity) was -1.1.
As for TTCCTGCTACAGAGCTCAGATTTCAAGGTG, the binding signal (log2 normalized intensity) is -0.557.
Next, CTCAAATCTAGCCAATGATGCTAGCCAATA: -1.11; TTTAGCTTTAGTTCAGGGAAGAGGGCACTC: 0.456.
As for AGGGATTGTTTAGGTACAAAGTCCATTGGA, the binding signal (log2 normalized intensity) amounted to 7.7.
The result for CTTGACTTTGGACTTTCAAAAGTTAAGGTC reads 3.32; that for TCCCGTCCCTGCCAAAGGTCAGAGTTGAAC, 3.72; that for TCAATGGCCCCAGTGCACGTGCATGAGGCC, 0.00807.
As for GAATTTTTCTGTATAAGACAACCTTTGTTC, the binding signal (log2 normalized intensity) turned out to be 4.46.
The result for TTTAACGGTCTGCCCTCTTGTCCTTCCCCT reads 3.08.
Regarding AAATACAAGGACACTGAAAGGCATTCTGCC, the binding signal (log2 normalized intensity) was -1.14.
As to GTAAGGAAGACAAGACAAGGAAGTTAAGAG, the binding signal (log2 normalized intensity) was -1.05.
For GCTGTTCCTTTCCTGCTGTTCCTTCAACAC, the binding signal (log2 normalized intensity) worked out at 1.21.
As for AACCCATCCACCCATCCAAAGGTCAGCAAT, the binding signal (log2 normalized intensity) was determined as 4.
Regarding GTTGGAATTTGGTCACAGAAAGTGACGTGC, the binding signal (log2 normalized intensity) came out at 1.69.
Regarding TGTGCTCATGACAAAGAAATGTAACCTTTG, the binding signal (log2 normalized intensity) worked out at 3.97.
For the sequence TTCTCCACTGGGAAGTAGAAGAAAGCTTCA, the binding signal (log2 normalized intensity) was -1.08.
ACATCAGCTGAGCAGAGAGGACCCTGTGAT: the binding signal (log2 normalized intensity) was 1.17.
TTCCTGCCTGGTCCGCCCTTCCCCGCTCTC: the binding signal (log2 normalized intensity) turned out to be 2.46.
